Reference: PMC4336329 (PLoS ONE, 2015)
About 2,200 (0.71%) of roughly 310,000 compounds showed an effect of 50% or more. Effects have a minus sign here. The list shows a part of the results.

molecular target: human ether-à-go-go-related gene (hERG) potassium channel (human, UniProt Q12809); test: primary screen, population patch clamp on CHO cells stably expressing hERG
Sequence (Q12809 whole entry, looked up): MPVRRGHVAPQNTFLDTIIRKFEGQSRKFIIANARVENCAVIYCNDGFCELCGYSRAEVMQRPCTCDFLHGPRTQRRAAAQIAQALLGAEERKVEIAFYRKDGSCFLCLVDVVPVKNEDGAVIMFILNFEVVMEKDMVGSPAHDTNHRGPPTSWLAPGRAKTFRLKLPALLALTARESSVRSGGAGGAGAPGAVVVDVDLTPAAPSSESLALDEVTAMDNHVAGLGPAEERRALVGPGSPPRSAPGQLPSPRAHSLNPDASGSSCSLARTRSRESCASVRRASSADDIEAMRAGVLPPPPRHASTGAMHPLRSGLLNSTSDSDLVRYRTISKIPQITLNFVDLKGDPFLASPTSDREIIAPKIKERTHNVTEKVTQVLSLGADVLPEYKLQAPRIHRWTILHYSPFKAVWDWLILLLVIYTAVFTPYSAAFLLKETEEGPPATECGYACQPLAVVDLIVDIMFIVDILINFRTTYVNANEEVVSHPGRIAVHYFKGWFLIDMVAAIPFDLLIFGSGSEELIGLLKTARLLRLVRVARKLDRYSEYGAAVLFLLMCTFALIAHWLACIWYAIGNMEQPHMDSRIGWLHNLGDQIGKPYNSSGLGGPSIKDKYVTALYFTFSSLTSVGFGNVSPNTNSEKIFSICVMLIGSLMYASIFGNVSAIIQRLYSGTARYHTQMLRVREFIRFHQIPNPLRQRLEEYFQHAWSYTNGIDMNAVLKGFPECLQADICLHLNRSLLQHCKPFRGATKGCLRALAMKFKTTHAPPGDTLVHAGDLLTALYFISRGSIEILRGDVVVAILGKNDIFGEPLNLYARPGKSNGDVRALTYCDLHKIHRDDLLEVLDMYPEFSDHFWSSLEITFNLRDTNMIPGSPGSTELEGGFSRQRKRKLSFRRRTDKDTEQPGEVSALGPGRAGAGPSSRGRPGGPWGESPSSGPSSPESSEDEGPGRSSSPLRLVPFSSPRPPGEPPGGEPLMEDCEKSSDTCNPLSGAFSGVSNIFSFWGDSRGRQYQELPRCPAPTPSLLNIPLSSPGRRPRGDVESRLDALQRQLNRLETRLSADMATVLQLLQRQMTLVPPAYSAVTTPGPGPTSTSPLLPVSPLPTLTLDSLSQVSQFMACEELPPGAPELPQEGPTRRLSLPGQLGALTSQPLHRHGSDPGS

Compound	hERG current change (%, negative = inhibition) at 1uM [%]
CCCN1CCCc2cc(CN)ccc21.O=C(O)C(=O)O	8.14
C=CCNC(=S)NNC(=O)c1csc(C)c1C	16
O=C(O)c1ccc(Cn2cc(C(F)(F)F)ccc2=O)cc1	19.6
CCN1C(=O)[C@H]2[C@@H](c3ccc(C)cc3)N3C(=O)N(c4cccc(Br)c4)C(=O)[C@@]3(Cc3ccccc3)[C@H]2C1=O	12
Cn1c2ccccc2c2c(C(=O)NCCCN3CCCC3=O)cn(C3CCCCC3)c(=O)c21	10.9
COc1ccc(NS(=O)(=O)c2cc(NC(=O)c3cccc(OCc4c(C)noc4C)c3)ccc2OC)cc1	17.6
CCOc1ccc(-c2ncncc2-c2ccc(OC)c(OC)c2)c(O)c1	3.88
CN(C(=O)CSc1nnc2ccccn12)C1CCS(=O)(=O)C1 (stereo not shown)	6.25
COCCCNc1nc2c(c(=O)n(C)c(=O)n2C)n1Cc1cccc(OC)c1	11.6
Cc1ccccc1N1C(=O)NC(=O)/C(=C\c2cnn(-c3ccccc3)c2)C1=O	12.7
CCC(C)N1CCN(C(=O)C2CCN(S(=O)(=O)c3c(C)noc3/C=C/c3ccco3)CC2)CC1 (stereo not shown)	5.94
CNCc1ccc(OCc2ccccc2)c(OC)c1	7.11
COc1ccc(CCN2CC(C(=O)N(C)CC(=O)Nc3cccc(F)c3)CC2=O)cc1OC (stereo not shown)	13.7
CCNS(=O)(=O)c1ccc(OCCNS(C)(=O)=O)cc1	7.11
NS(=O)(=O)c1ccc(NC(=O)CCC2CCCCC2)cc1	11.7
COC(=O)C1CN(C(=O)C(C)Oc2ccc(F)cc2)c2ccccc2O1 (stereo not shown)	14.1
Cc1ccc(S(=O)(=O)N2CCN(CC(=O)N/N=C/C=C/c3ccccc3)CC2)cc1	-23.9
C/C(CC(=O)Nc1cccnc1)=N\NC(=O)C(=O)NC(C)C	15.6
S=c1[nH]nc(-c2ccco2)n1/N=C/c1ccccc1Cl	13.4
C=C[C@@]12CN(C)[C@H]3[C@H]1[C@@]1(C(=O)Nc4ccccc41)C1CC2[C@@H]3CO1	13.4
O=C(CCn1[nH]c(=O)c2ccccc2c1=O)NCCO	8.51
O=C1C2C3C=CC(C3)C2C(=O)N1CCc1ccccc1 (stereo not shown)	9.23

Compound	hERG current change (%, negative = inhibition) at 1uM [%]
Cc1cc(C)cc(OCC(=O)NNC(=O)CN2C(=O)c3ccccc3C2=O)c1	9.33
O=C(C1CC(=O)N(c2ccc(F)c(Cl)c2)C1)N1CCC2(CC1)OCCO2 (stereo not shown)	7.02
Cc1nc(CCNC(=O)CC2C(=O)NCCN2Cc2ccc(F)cc2)sc1C (stereo not shown)	9.13
O=c1c(Cc2ccccc2)c(O)c2cccc3c4c(n1c23)CCCC4	6.44
O=C(c1ccccc1)N1CCN(Cc2ccccc2Br)CC1	10.4
COc1cccc(C(=O)N2N=C(c3ccccc3)CC2(O)C(F)(F)F)c1 (stereo not shown)	10.6
CCc1ccccc1NC(=O)C1CCCN1S(=O)(=O)c1ccc(-c2ccc(=O)[nH]n2)s1 (stereo not shown)	-0.779
Cc1cccc(C)c1NC(=O)N1C(C(=O)O)CSC1C(=O)O (stereo not shown)	15.3
CCN(C(=O)COC(=O)/C=C/c1ccc(OC(F)F)c(OC)c1)C1CCS(=O)(=O)C1 (stereo not shown)	8.13
Cc1ccc(S(=O)(=O)CCC(=O)OCC(=O)N(Cc2ccccc2)C(C)C)cc1	-3.08
CCc1nnc(NC(=O)c2ccc(S(=O)(=O)N3CCCC(C)C3)cc2)s1 (stereo not shown)	12.2
CC(/C=N/NC(=O)c1cc(-c2ccc(C)o2)[nH]n1)=C\c1ccccc1	0.281
Cc1cccc(Nc2nnc(SCC(=O)Nc3ccc(C(=O)O)cc3)s2)c1	8.69
CCn1c(SCc2ccc(Cl)cc2)nc2nc3c(cc2c1=O)CCCC3	15.4
O=C(O)c1ccc(CN2C(=O)c3ccc(C(=O)O)cc3C2=O)cc1	0.521
N=c1sccn1CC(=O)Nc1cc(S(=O)(=O)N2CCCCC2)ccc1Cl	-7.38
COc1ccc(NC(=O)C(=O)c2cn(CC(=O)N3CCOCC3)c3ccccc23)cc1OC	11.6
CCNc1ccc(S(=O)(=O)N(C)C)cc1NCC(=O)Nc1c(F)cccc1F	-5.5
CC(=O)c1ccc(NC(=O)Nc2cccnc2)cc1	9.26
COc1ccc(OC)c(S(=O)(=O)Nc2cccc3ccc(O)cc23)c1	10.8
CN(C)c1ccc(CNS(=O)(=O)c2csc(C(N)=O)c2)cc1	13
CCOC(=O)C(=NC(C)C)NNc1cc(Cl)ccc1Cl	1.47

Compound	hERG current change (%, negative = inhibition) at 1uM [%]
COc1ccc(Br)cc1CN(C)CC(=O)Nc1cccc(S(N)(=O)=O)c1	6.65
COc1cccc(C(C(=O)NC2CCCC2)N(C(=O)c2ccco2)c2ccc(C(C)=O)cc2)c1OC (stereo not shown)	6.86
COc1ccc(C(=S)Nc2ccc(C)cc2)cc1	3.78
C=CC(C)(C)c1c(O)c(CC=C(C)C)c(O)c2c(=O)c3ccc(O)c(O)c3oc12	17.8
O=C(N/N=C/c1ccccc1O)C1(O)c2ccccc2-c2ccccc21	3.86
CCCNC(=O)C(Cc1ccccc1)NC(=O)c1ccccn1 (stereo not shown)	12.1
C=CCOc1ccc(CNCc2cccnc2)cc1.Cl	10.6
CCc1cc(-c2[nH]ncc2-c2ccc([N+](=O)[O-])cc2)c(O)cc1OC	12.5
CC(=O)Nc1ccc(NC(=O)c2ccccc2N(C)S(C)(=O)=O)cc1	7.62
CCOC(=O)/C(=C\C=C1/Sc2ccccc2N1CC)C(C)=O	8.41
COc1ccccc1OCCNC(=O)C(CCSC)NC(=O)COc1ccccc1 (stereo not shown)	7.39
CCC(C(=O)OCCN(CC)CC)c1ccccc1.O=C(O)CC(O)(CC(=O)O)C(=O)O (stereo not shown)	11.6
CCCN(CC(=O)Nc1ccccc1C)C(=O)c1ccc(N2CCCCC2)c([N+](=O)[O-])c1	6.11
CCOn1c(=O)c(-c2cccc(Br)c2)[n+]([O-])c2ccccc21	12.9
Cc1cc(C)cc(C(=O)Nc2ccc(N3CCN(S(C)(=O)=O)CC3)cc2)c1	14.8
COc1ccc(OCC(=O)Nc2ccccc2Cl)cc1	13.8
COc1cc(Cl)c(C)cc1NC(=O)CSc1ccc(NC(C)=O)cc1	11.1
COCC(=O)N1CCC(n2nccc2NC(=O)CCOc2ccccc2)CC1	17.4
COc1cc2c(cc1OC)C(c1cccs1)NCC2 (stereo not shown)	12.4
CCCn1nc([N+](=O)[O-])c(C(C#N)c2nc3ccccc3o2)c(Cl)c1=O (stereo not shown)	8.61
CN(C)CC#CCOC(c1ccccc1)c1ccccc1.Cl	6.65
O=C1CCCCCC1C1(O)C(=O)Nc2ccccc21 (stereo not shown)	-1.16

Compound	hERG current change (%, negative = inhibition) at 1uM [%]
C#CCOCCOCCOCCNc1nc(N2CCN(C(=O)Cn3cc(CCC[NH+]=C(N)N)nn3)CC2)nc(N2CCN(C(=O)[C@H](CCCC[NH3+])n3cc(CCCC)nn3)CC2)n1.[Cl-]	9.09
O=C(Nc1ccc(-c2csc(Nc3cccc(C(F)(F)F)c3)n2)cc1)c1cc([N+](=O)[O-])cc(C(F)(F)F)c1	5.25
COc1ccc(CCn2c(O)c(C=NCc3ccc4c(c3)OCO4)c(=O)[nH]c2=O)cc1OC	0.557
COc1cc2c(-c3cc(F)cc(F)c3)c(-c3ccsc3)oc(=O)c2cc1OC	13.7
CCN1C(=O)/C(=C/c2ccc(N(CC)CC)cc2OC)C(=O)NC1=S	5.05
COc1ccc(C(=O)Nc2ccc3c(c2)Cc2ccccc2-3)cc1	14.1
CN(C)CCNC(=S)Nc1ccc(-c2nc3ccccc3[nH]2)cc1	4.55
COc1ccc(-c2noc(-c3ccccc3C(=O)NCc3ccco3)n2)cc1	6.75
O=C(NCc1ccc(F)cc1)c1cc2c(s1)CCCC2	18.3
Cc1ccc(C(=O)N/C(=C\c2ccc(-c3cccc([N+](=O)[O-])c3)o2)C(=O)NC(C)(C)C)cc1	12.1
COc1ccc(NC(=S)Nc2cccc(S(=O)(=O)N3CCCCC3)c2)cc1	10.2
O=C(CSc1nnc(-c2ccncc2)o1)NCc1ccc(Cl)cc1	-6.86
Nc1ccc2ccc3cccc[n+]3c2c1.[O-][Cl+3]([O-])([O-])[O-]	10.1
O=C1O/C(=C\C(=O)N2CCOCC2)c2ccccc21	8.33
CN(C)CCNc1c(N)c(=O)oc2ccccc12	5.18
O=C(CN1C(=O)NC2(CCCC2)C1=O)Nc1nc(-c2ccccc2)cs1	16.5
COc1cc(C(=O)Oc2ccc3c(c2)OCC3=O)cc(OC)c1OC	22.4
O=C1c2ccccc2C2=Nc3ccccc3SC(c3cccc(F)c3)C12 (stereo not shown)	7.97
CCOc1ccccc1CN1CCN(Cc2cc3ccccc3[nH]2)CC1CCO (stereo not shown)	-22.8
